# From PubChem BioAssay AID463173 (ICCB-Longwood Screening Facility, Harvard Medical School, 2010)
# Hit rate of the full screen: of about 52,000 compounds, about 4,300 (8.3%) were called active. No stated cut-off is given here; in the data, active means survival mostly below about 52% (no sharp cut-off); inactive means mostly above about 56%. The list shows a part of the results.
# Test system: DeltatarO mutant
# Assay: growth inhibition of S. aureus wild type versus tarO mutant, primary screen, teichoic acid synthesis inhibitors, RN4220, OD600 (AID 463173)
# Conditions: OD600, 18 h, stronger effect = lower value, screened at 18.75 µg/mL (by protocol)
row,SMILES,survival
1,CCc1ccc(-n2nc(CO)c(C(=O)NCC(c3ccccc3)c3ccccc3)n2)cc1,inactive: 51%
2,Cc1ccc(N(Cc2cc3ccccc3[nH]c2=O)C(=O)c2cccc(Cl)c2)cc1,inactive: 83%
3,Cc1nn(C(=O)c2cc3sc(Br)cc3[nH]2)c(C)c1C,inactive: 103%
4,Cc1ccc(-c2cn3c(n2)sc2cc(C(=O)NCc4cccs4)ccc23)c(C)c1,active: 41%
5,CCn1c(SCc2ccc(F)cc2Cl)nc(=O)c2c(C(=O)OC)cc(C3CC3)nc21,inactive: 82%
6,CC(C)C1N=C2c3ccccc3N=C(SCC(=O)NCc3ccccc3Cl)N2C1=O (stereo not drawn),inactive: 99%
7,Cc1ccc(CNC(=O)c2cc(-c3ccc(C)cc3)nc3n[nH]c(-c4ccc(F)cc4)c23)cc1,inactive: 85%
8,CCCn1c(=O)c2sccc2n2c(CCCC(=O)Nc3ccc(Oc4ccccc4)cc3)nnc12,inactive: 88%
9,CCOC(=O)C1CCN(S(=O)(=O)c2ccc(N3CCCCS3(=O)=O)cc2)CC1,inactive: 80%
10,COc1ccc(CNC(=O)c2ccc3c(c2)N(Cc2ccccc2C)C(=O)c2ccccc2S3=O)cc1 (stereo not drawn),inactive: 99%
11,O=C(NCc1ccc(F)cc1)C1CCN(c2ncnc3c2nc2n3CCCCC2)CC1,inactive: 86%
12,O=C(CSc1nnc(Cn2nnc3ccccc32)o1)N1c2ccccc2CCc2ccccc21,inactive: 83%
13,COc1ccc(CNc2oc(/C=C/c3cccc(OC)c3)nc2C#N)cc1,inactive: 63%
14,O=C(CN1CCC(N2CCCCC2)CC1)c1ccc2c(c1)OCCO2,inactive: 83%
15,COc1ccc(OC)c(CNC(=O)c2c(C)oc3ncn(C)c(=O)c23)c1,inactive: 83%
16,O=C(c1ccc2c(c1)CCN2S(=O)(=O)c1ccc(Cl)cc1)N1CCN(c2ccccc2)CC1,inactive: 58%
17,CCOc1ccc(CN2C(=O)c3ccccc3Sc3ccc(C(=O)OC)cc32)cc1,inactive: 75%
18,CC(=O)Nc1ccc(S(=O)(=O)NCc2cccn2Cc2cccc(C)c2)cc1,inactive: 83%
19,Cc1ccc(CSc2nc(-c3ccc(C(C)(C)C)cc3)nc3cc(=O)[nH]n23)cc1,inactive: 89%
20,CCc1ccc(Nc2sc(C(=O)c3ccccc3)c(N)c2S(C)(=O)=O)cc1,inactive: 70%
21,CCOCCc1nn2c(=O)cc(COC(=O)CNC(=O)c3ccc(F)cc3)nc2s1,inactive: 94%
22,CCOc1ccc(CC(=O)NCCc2csc(-c3ccc(Cl)cc3)n2)cc1,inactive: 67%

row,SMILES,survival
1,CN(Cc1ccccc1)C(=O)c1cccc(NC(=O)c2nsc3ccccc23)c1,inactive: 85%
2,COc1cc(C(CC(=O)Nc2cc(C)ccc2C)N2Cc3ccccc3C2=O)cc(OC)c1OC (stereo not drawn),inactive: 86%
3,CC(C)(C)OC(=O)N1CCC(c2c(C(=O)N3CCN(c4ccccn4)CC3)cnn2-c2ccccc2Cl)CC1,inactive: 54%
4,CC(=O)c1ccc(NC(c2ccc(F)cc2)c2nnc(-c3ccccc3)o2)cc1 (stereo not drawn),inactive: 77%
5,CCOC(=O)c1[nH]c(C)c(CCC(=O)N2CCN(c3cccc(C)c3C)CC2)c1C,inactive: 83%
6,CCOCCCNC(=O)c1cn(CC)c2ccc(S(=O)(=O)N3CCc4ccccc4C3)cc2c1=O,inactive: 85%
7,Cc1cccc(NS(=O)(=O)c2ccc(NC(=O)N3CCCC3)cc2)c1,inactive: 88%
8,CCOc1ccc(-c2oc3cc(Cl)ccc3c(=O)c2O)cc1OC,inactive: 85%
9,CCOC(=O)c1cc(C)n(CC2CCC(C(=O)Nc3ccc(C(=O)OC)cc3)CC2)c1C (stereo not drawn),inactive: 69%
10,Cc1ccccc1CNC(=O)Nc1ccc2c(c1)N(C)C(=O)c1ccccc1S2,active: 63%
11,COc1ccc(C2CC(=O)N(Cc3ccccc3)c3c2c(C)nn3-c2nc(C)cc(C)n2)c(OC)c1 (stereo not drawn),inactive: 92%
12,COc1ccc(-n2nc3ccc(NS(C)(=O)=O)cc3n2)cc1Cl,inactive: 70%
13,O=C(CCOc1ccccc1)N(Cc1cccnc1)c1nc2ccc(F)cc2s1,inactive: 94%
14,O=C(Nc1ccc2oc(-c3ccc(Cl)cc3)nc2c1)c1ccc2ccccc2c1,inactive: 72%
15,Cc1ccc2nc(SCC(=O)NCc3ccco3)c(C)cc2c1,inactive: 84%
16,CCN(CC)c1cc(C)c2cc(NC(=O)c3ccc(F)cc3Cl)ccc2n1,active: 39%
17,Cn1c(=O)oc2cc(S(=O)(=O)N3CCC(C(=O)N4CCN(c5ccc(Cl)cc5)CC4)CC3)ccc21,inactive: 56%
18,CCOc1ccccc1NC(c1nnc(-c2ccccc2)o1)c1ccc(F)cc1Cl (stereo not drawn),active: 1%
19,CCN(C(=O)c1cc2c(=O)oc3ccc(C)cc3c2s1)c1ccccc1F,inactive: 73%
20,CC(C)CN(CCNC(=O)c1cn(C)c2ccc(S(=O)(=O)N3CCCC3)cc2c1=O)CC(C)C,inactive: 141%
21,CCCN(C(=O)CCNC(=O)Cn1cnc2ccccc2c1=O)c1cccc(C)c1,inactive: 67%
22,Cc1nn(-c2ccc(N3CCCCC3)nn2)c(C)c1CCC(=O)NCc1ccc(Cl)cc1,inactive: 79%

row,SMILES,survival
1,CCc1ccccc1NC(=O)Cn1cc2c(n1)CCC(C)C2 (stereo not drawn),inactive: 82%
2,O=c1cc(-c2ccccc2)c2ccc3c(c2o1)CN(Cc1ccccc1)CO3,inactive: 85%
3,CCc1ccc(NS(=O)(=O)c2ccc3[nH]cc(C(=O)N(C)Cc4ccco4)c(=O)c3c2)cc1,inactive: 72%
4,CCOC(=O)c1c(NC(=O)c2cc(Cl)ccc2Cl)sc2c1CCCC2,inactive: 72%
5,COc1ccc(OC)c(NC(=O)c2cc(=O)c3c(C)cc(C)cc3o2)c1,active: 42%
6,Cc1ccc(CNc2nccn(-c3cc(C)cc(C)c3)c2=O)cc1,inactive: 95%
7,CN(C(=O)CSc1nc2ccc(NC(=O)COc3ccccc3)cc2s1)c1ccccc1,inactive: 69%
8,CCC(C)NC(=O)c1sc2ncccc2c1-n1c(C)ccc1C (stereo not drawn),inactive: 115%
9,O=C(NCc1ccco1)C(c1ccccc1)N(C(=O)Cc1cccs1)c1cccnc1 (stereo not drawn),inactive: 83%
10,CCCc1cc(=O)[nH]c(Nc2cc(Cl)ccc2OC)n1,inactive: 68%
11,CCOc1cc(C2c3c(oc4ccccc4c3=O)C(=O)N2c2ccccn2)ccc1O (stereo not drawn),inactive: 109%
12,Cc1cccc(NC(=O)COc2cccc3c(=O)n(C)ccc23)c1C,inactive: 94%
13,CCOC(=O)c1ccc2[nH]c(CSc3nnc(-c4cccc(F)c4)n3C)cc(=O)c2c1,inactive: 91%
14,COc1ccc(C2Oc3nc(SC)nnc3-c3ccccc3N2C(C)=O)cc1 (stereo not drawn),inactive: 46%
15,CCc1ccc(-n2nc(CO)c(C(=O)NCc3ccccc3OC)n2)cc1,inactive: 62%
16,COCCCn1c(=O)c2sccc2n2c(CCCC(=O)NCc3ccc(F)cc3)nnc12,inactive: 92%
17,CCn1cc(S(=O)(=O)c2cccc(C)c2)c(=O)c2cc(F)c(N3CCN(c4ccccc4)CC3)cc21,inactive: 84%
18,Cc1ccc2[nH]c3c(=O)n(CC(=O)NCCc4ccc(Cl)cc4)ncc3c2c1,inactive: 88%
19,COc1ccc(NC(=O)C2CCN(c3cnccn3)CC2)cc1Cl,inactive: 73%
20,Cc1cn2c(=O)c(S(=O)(=O)NCc3ccccc3Cl)c(C)nc2s1,inactive: 66%
21,Cc1cc(C)n(CCc2nc3c4ccccc4nc(N4CCN(c5ccc(F)cc5)CC4)n3n2)n1,inactive: 70%
22,CCN(C(=O)CSc1nc2n[nH]c(C)c2c(=N)n1-c1cccc(OC)c1)c1cccc(C)c1,inactive: 94%

row,SMILES,survival
1,CCN(C(=O)CSc1nc2ccccc2n1CC(=O)Nc1ccc(F)cc1F)c1ccccc1,inactive: 77%
2,COc1ccc(-c2ccc(CCC(=O)O)n2-c2ccc(Cl)cc2C)cc1,active: 47%
3,CCOc1ccccc1C(=O)NC1CCSC1=O (stereo not drawn),inactive: 75%
4,CCOC(=O)c1cccc(NC(=O)CCc2c(C)nn(-c3ccc(N4CCOCC4)nn3)c2C)c1,inactive: 129%
5,CNC(=O)c1c(NC(=O)c2ccc(S(=O)(=O)N3CCCCC3C)cc2)sc2c1CCC2 (stereo not drawn),inactive: 55%
6,Cc1ccc(Nc2c(-c3cccnc3)nc3ccc(Br)cn23)cc1,inactive: 80%
7,CCN(CC)c1ncccc1C(=O)NCc1cccs1,inactive: 81%
8,O=S(=O)(Nc1cccc(-c2ccc(N3CCCC3)nn2)c1)c1ccc(F)c(C(F)(F)F)c1,inactive: 71%
9,COc1ccc(-c2nnc(SCC(=O)N(C)Cc3ccccc3)o2)cc1OC,inactive: 90%
10,Cc1cccc(Oc2ccc3c(c2)Oc2ccccc2NC3=O)c1,inactive: 73%
11,Cc1ccc(NC(=O)Cn2cc(S(=O)(=O)N3CCC(C)CC3)c3ccccc3c2=O)c(Br)c1,inactive: 84%
12,CCCCN(CCCNC(=O)c1c(C)oc2nc[nH]c(=O)c12)Cc1ccccc1,active: 53%
13,COc1ccc(C(=O)NCC(c2cccnc2)N2CCc3ccccc32)cc1OC (stereo not drawn),inactive: 57%
14,Cc1cccc(CNC(=O)c2ccc(NC(=O)N3CCSc4ccccc43)cc2)c1,inactive: 66%
15,COc1cccc(N2CCN(C(=O)CN3C(=O)COc4ccc(S(=O)(=O)N5CCC(C)CC5)cc43)CC2)c1,inactive: 77%
16,CCOC(=O)c1cc(-c2ccccc2)n(-c2cccc(C(=O)Nc3cccc(C(C)=O)c3)c2)c1C,inactive: 89%
17,Cc1oc2c(c(C)cc3oc(=O)c(CC(=O)NCc4ccccc4)c(C)c32)c1C,inactive: 87%
18,CCc1cc2cc(C)cc(C)c2nc1SCC(=O)N1CCN(C(=O)c2ccco2)CC1,inactive: 88%
19,COc1ccc(C)cc1-n1nnc(C(=O)Nc2cccc(SC)c2)c1C,inactive: 86%
20,Cc1c(Cl)cccc1NC(=O)Cn1cc2c(n1)CCCC2,inactive: 87%
21,CCc1ccc(-n2nc(C)c3c(C)cc(=O)n(CC(=O)Nc4ccccc4C(=O)OC)c32)cc1,inactive: 67%
22,CSCCC(NS(=O)(=O)c1ccc2c(c1)oc(=O)n2C)C(=O)N1CCN(c2ccc(F)cc2)CC1 (stereo not drawn),inactive: 69%
